Here are results for 48 compounds from PubChem BioAssay AID1508624 (National Center for Advancing Translational Sciences (NCATS), 2021).

Among all 48,000 compounds or so, about 120 (0.25%) were called active. About 4% were inconclusive and are not listed. Calls come from the whole dose curve; as a rule, active = well fitted activation curve with a large enough effect; inconclusive = small, poorly fitted or top-dose-only effect, or another doubt; inactive = no such curve, though single readings can be large or run the other way. The list shows a part of the results.

This test is described as follows: Primary qHTS for Identification of Small Molecule Activators of Huntingtin-Antisense Promoter Activity. Note: nearly all actives have a fitted effect of over 55% in size. Conditions: HEK293 HTT-AS promoter firefly luciferase reporter (activity 0% = vehicle and -100% = no light), 24 h; series mostly up to 57.5 µM; activity change, positive = activation: at the top concentration. The gist of the method: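 Quantitative HTS used concentration series of up to 57.5 uM final on HEK293 luciferase reporter cells, 24 h at 37 degrees C. Readout was Dual-Glo firefly luminescence.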
Consider `CCOC(=O)C1=C(CS(=O)(=O)c2ccc(F)c(C)c2)NC(=O)NC1c1ccc(F)c(F)c1` (stereo not drawn), for which the “activity change, positive = activation” value was inactive: -28.6%.

Consider `CC(=O)N1CCc2c(sc(NC(=O)CSc3ccc(C)cc3)c2-c2nc3ccccc3s2)C1`, for which the “activity change, positive = activation” value is inactive: -2.85%.

With `Cc1cccc(N2CCN(C(=O)c3cccc(-n4c(C)nc5cccnc54)c3)CC2C)c1` (stereo not drawn), the “activity change, positive = activation” value was inactive: -32%.

Take `Cc1c(C(=O)Nc2ccccc2Cl)oc2ccc(S(=O)(=O)N3CCCCCC3)cc12`: the “activity change, positive = activation” value was inactive: 0%.

For `Cc1cc(C)c2c(n1)SCC(=O)N2CC(=O)Nc1c(C)cccc1C`, the “activity change, positive = activation” value was inactive: -8.68%.

`Cc1cc(C)cc(NC(=O)Nc2c[nH]c(=O)[nH]c2=O)c1`: the “activity change, positive = activation” value is inactive: -7.8%.

On to `O=C(NC1(C(F)(F)F)N=C(c2ccccc2)N(C2CCCCC2)C1=O)c1ccccc1F` (stereo not drawn), for which the “activity change, positive = activation” value is inactive: -37%.

For `COc1ccc(NS(=O)(=O)c2cc3c4c(c2)CC(=O)N4CCC3)cc1Cl`, the “activity change, positive = activation” value is inactive: -13.7%.

`COc1ccc(OC)c(CCNc2ncnc3onc(C)c23)c1`: the “activity change, positive = activation” value was inactive: -71%.

Regarding `CCn1c(CN2CCC(C)CC2)nc2cc(NC(=O)c3cccc([N+](=O)[O-])c3)ccc21`, the “activity change, positive = activation” value is inactive: -6.7%.

Consider `O=C(Cn1c(=O)c2sccc2n(CC(=O)Nc2ccc(Cl)cc2Cl)c1=O)NCCc1ccccc1`, for which the “activity change, positive = activation” value is inactive: -44.9%.

As for `Cc1ccc(NC(=O)N2CCc3c([nH]c4ccccc34)C2c2ccccc2F)c(Cl)c1` (stereo not drawn), the “activity change, positive = activation” value is inactive: -28.5%.

For `CCCN1Cc2cccc(C(=O)Nc3ccc(OC)cc3OC)c2C1=O`, the “activity change, positive = activation” value is inactive: 0.991%.

Regarding `COc1cccc(C(=O)c2cn(CC(=O)Nc3cccc(Cl)c3C)c3nc(C)ccc3c2=O)c1`, the “activity change, positive = activation” value was inactive: -8.22%.

For the compound `COCCN1C(=O)c2oc3ccc(C)cc3c(=O)c2C1c1ccc(C(=O)OC)cc1` (stereo not drawn), the “activity change, positive = activation” value was inactive: -0.81%.

For `CSc1ncc(C(=O)NCc2cccc(Br)c2)c(-c2ccccc2)n1`, the “activity change, positive = activation” value is inactive: -19.3%.

In the case of `COc1ccc(CNS(=O)(=O)c2ccc3c(c2)C(C)(C)C(=O)N3C)cc1OC`, the “activity change, positive = activation” value was inactive: -14.3%.

With `Cc1ccc(C(C)C)c(OCC(=O)Nc2ccc(-c3nc4ncccc4o3)cc2C)c1`, the “activity change, positive = activation” value was inactive: -9.34%.

`O=C(NCc1ccccc1F)C(=O)NCC(c1ccco1)S(=O)(=O)c1ccccc1` (stereo not drawn): the “activity change, positive = activation” value is inactive: -22.3%.

Turning to `Cc1ccc(C)c(NS(=O)(=O)c2ccc3c(c2)CCCN3C(=O)C2CCC2)c1`, the “activity change, positive = activation” value was inactive: -35%.

Take `COc1ccc(C(C(=O)NCc2ccccc2)N(C(=O)Cn2nnc3ccccc32)c2ccc(OC)cc2)cc1` (stereo not drawn): the “activity change, positive = activation” value was inactive: -12.9%.

Turning to `Cc1cc(N2CCN(C)CC2)nc2ccc(NC(=O)Nc3ccccc3Cl)cc12`, the “activity change, positive = activation” value was inactive: -29.8%.

Take `CCN(c1ncnc2c1c(-c1ccccc1)cn2-c1ccccc1)C1CCCCC1`: the “activity change, positive = activation” value is inactive: -5.14%.

For `Cc1ccc(OCC(=O)OCc2cc(=O)n3nc(C4CCCCC4)sc3n2)cc1`, the “activity change, positive = activation” value was inactive: -8.01%.

In the case of `COc1ccc(N(C(=O)c2ccccc2C)S(=O)(=O)c2ccc3c(c2)n(C)c(=O)n3C)cc1`, the “activity change, positive = activation” value is inactive: -5.59%.

Regarding `CCOc1ccccc1NS(=O)(=O)c1c(C(=O)OC)sc2cccc(F)c12`, the “activity change, positive = activation” value was inactive: -29.7%.

In the case of `COc1ccc(OC)c(CCNC(=O)c2sc3nc4n(c(=O)c3c2C)CCCC4)c1`, the “activity change, positive = activation” value was inactive: -2.04%.

Turning to `CSCCC(NC(=O)C1CCCCC1)C(=O)Nc1ccc(F)c(Cl)c1` (stereo not drawn), the “activity change, positive = activation” value is inactive: -21.4%.

Consider `CCNc1c(NC(=O)c2ccccc2OCC)c(=O)oc2ccccc12`, for which the “activity change, positive = activation” value was inactive: -13.7%.

As to `COc1cccc(-c2nc(SC(C(C)=O)C(=O)N(C)C)c3c(=O)n(C)c(=O)n(C)c3n2)c1` (stereo not drawn), the “activity change, positive = activation” value was inactive: -6.15%.

`CCOC(=O)C1=C(CNCc2ccccc2)NC(=O)NC1c1ccc(C)cc1` (stereo not drawn): the “activity change, positive = activation” value is inactive: -21.2%.

For `Cc1ccc(N2C(=O)[C@@H]3CSC(c4ccc(C(F)(F)F)cc4)N3C2=O)cc1` (stereo partly drawn), the “activity change, positive = activation” value was inactive: -9.63%.

Regarding `COc1ccc(-n2c(=O)c3c(C)c(C)sc3n(Cc3ccc(F)cc3)c2=O)c(OC)c1`, the “activity change, positive = activation” value is inactive: -27.5%.

In the case of `Cc1ccc(S(=O)(=O)N2CCCc3cc(NC(=O)c4ccc(C(F)(F)F)cc4)ccc32)cc1`, the “activity change, positive = activation” value is inactive: -0.942%.

As for `COc1ccc(-c2noc(CSc3nnc(-c4ccncc4)n3-c3cccc(C)c3)n2)cc1OC`, the “activity change, positive = activation” value was inactive: -28.7%.

With `Cc1ccc(-c2cc(-c3coc4ccccc4c3=O)c3c(n2)-c2cc(Cl)ccc2OC3)cc1`, the “activity change, positive = activation” value is inactive: -6.66%.

For the compound `COc1ccccc1NC(=O)Cn1c(SCC(=O)NCc2ccccc2)nc2ccccc21`, the “activity change, positive = activation” value was inactive: -28.3%.

With `CC(=O)Nc1ccc(-c2nnc3n(CC(C)C)c(=O)c4ccccc4n23)cc1`, the “activity change, positive = activation” value was inactive: 19.2%.

As to `Cc1cc(C)cc(NC(=O)NCC2CCN(Cc3cc(C)ccc3C)CC2)c1`, the “activity change, positive = activation” value is inactive: 1.46%.

As for `COc1ccc(CCC(=O)NCCc2csc(-c3cccc(F)c3)n2)cc1`, the “activity change, positive = activation” value was inactive: -10.4%.

For the compound `COc1cc2c(cc1NC(=O)C(C)Oc1ccc(Cl)cc1Cl)oc1ccccc12` (stereo not drawn), the “activity change, positive = activation” value is inactive: 19.2%.

With `CCNC(=O)Nc1ccc2ncc(Nc3ccc(C)cc3)nc2n1`, the “activity change, positive = activation” value is inactive: -1.47%.

With `CCc1ccc(OCC2c3cc(OC)c(OC)cc3CCN2C(=O)Cc2ccc(OC)c(OC)c2)cc1` (stereo not drawn), the “activity change, positive = activation” value is inactive: -24.4%.

In the case of `COc1cc(-c2nnc(SCC(=O)N(C)C3CCCCC3)o2)cc(OC)c1OC`, the “activity change, positive = activation” value is inactive: -21.7%.

With `COc1ccc(NC(=O)CCCN2C(=O)C(c3ccccc3)Oc3cccnc32)cc1OC` (stereo not drawn), the “activity change, positive = activation” value is inactive: -35.7%.

For `Cc1ccc(CCNC(=O)CCCn2nc(C)c3c(C)n(-c4ccc(C)cc4)nc3c2=O)cc1`, the “activity change, positive = activation” value is inactive: -8.26%.

Take `CC(NC(=O)c1ccc(N2Cc3ccccc3Oc3ncccc32)s1)c1ccccc1` (stereo not drawn): the “activity change, positive = activation” value was inactive: -14.4%.

With `Cc1ccc(/C=C/c2onc(C)c2S(=O)(=O)N2CCC(C(=O)NCc3ccc(Cl)cc3)CC2)cc1`, the “activity change, positive = activation” value is inactive: -11.5%.
